{"source": "the supplement of paper PMC3334620", "note": "In all, about 33,000 sequences were measured (“E-score (-0.5 to 0.5)”: median about -0.01, highest 2% from about 0.26 on). The list shows a part of the results.", "data": [{"target": "Ste12 (UniProt P13574)", "experiment": "PBM E-score (8-mer binding enrichment) (E-score (-0.5 to 0.5)); higher = stronger / more preferred TF binding; most listed sequences are background and not binding sites", "conditions": "protein concentration: 200 nM; construct: GST-DNA-binding domain", "method_in_brief": "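Yeast transcription factors carrying a GST tag, as full-length proteins or DNA-binding domains, were produced by PURExpress in vitro transcription/translation. About 100-200 nM protein was applied to universal all-10-mer Agilent arrays, double-stranded by primer extension on fresh or once-stripped slides. Bound protein was detected with fluorescent anti-GST, and scans were normalised with masliner. The Universal PBM Analysis Suite gave each ungapped eight-base word, pooled with its reverse complement, an E-score, a modified Wilcoxon-Mann-Whitney statistic.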", "values": [{"sequence": "TATCCCCA", "PBM E-score": 0.148}, {"sequence": "GAATAGTC", "PBM E-score": 0.0149}, {"sequence": "AGTACGCG", "PBM E-score": -0.177}, {"sequence": "GACTCGGC", "PBM E-score": -0.049}, {"sequence": "GCGTAATA", "PBM E-score": 0.0936}, {"sequence": "CTTCCGGA", "PBM E-score": -0.0404}, {"sequence": "GTTCAATA", "PBM E-score": -0.0143}, {"sequence": "AAGATCCA", "PBM E-score": -0.00319}, {"sequence": "CTTTCTTA", "PBM E-score": 0.0052}, {"sequence": "CGTGAAAC", "PBM E-score": 0.364}, {"sequence": "ACAATGAT", "PBM E-score": 0.142}, {"sequence": "GTGAGGAA", "PBM E-score": 0.0279}, {"sequence": "ACGCAAAT", "PBM E-score": 0.141}, {"sequence": "CGACTTGC", "PBM E-score": -0.00012}, {"sequence": "TACAGCTA", "PBM E-score": -0.217}, {"sequence": "TCCACGAA", "PBM E-score": 0.102}, {"sequence": "CATGAGGA", "PBM E-score": -0.114}, {"sequence": "CCCCACGA", "PBM E-score": -0.00593}, {"sequence": "GACATTAA", "PBM E-score": 0.173}, {"sequence": "CCGTGCCC", "PBM E-score": -0.155}, {"sequence": "AGCTCCTC", "PBM E-score": -0.172}, {"sequence": "AAACGAGT", "PBM E-score": 0.128}, {"sequence": "AACGATGC", "PBM E-score": -0.214}, {"sequence": "AGTTTCAA", "PBM E-score": 0.307}, {"sequence": "CTCAATGC", "PBM E-score": -0.0165}, {"sequence": "ATGTTGAA", "PBM E-score": 0.184}, {"sequence": "TAGATATA", "PBM E-score": 0.241}, {"sequence": "ACATTCAG", "PBM E-score": -0.0388}, {"sequence": "AGCCAGTA", "PBM E-score": -0.0929}, {"sequence": "AAATAAAA", "PBM E-score": 0.291}, {"sequence": "ATGATTAC", "PBM E-score": -0.124}, {"sequence": "GAGGAATC", "PBM E-score": -0.169}, {"sequence": "AATAACCA", "PBM E-score": 0.112}, {"sequence": "AATACAAC", "PBM E-score": 0.157}, {"sequence": "CTTACCAC", "PBM E-score": -0.061}, {"sequence": "AGTCGGCC", "PBM E-score": -0.0268}, {"sequence": "GGGTTTAA", "PBM E-score": 0.215}, {"sequence": "ATATAAAC", "PBM E-score": 0.161}, {"sequence": "CGCACGGC", "PBM E-score": -0.00864}, {"sequence": "AGACAGCG", "PBM E-score": -0.128}, {"sequence": "GTCGGTAA", "PBM E-score": 0.0284}, {"sequence": "GTTGCGAA", "PBM E-score": 0.093}, {"sequence": "TCGGGCAA", "PBM E-score": -0.136}, {"sequence": "CTACAGGA", "PBM E-score": -0.14}, {"sequence": "AAATGATC", "PBM E-score": -0.0582}, {"sequence": "CGGGCTCC", "PBM E-score": -0.132}, {"sequence": "CAGGACCG", "PBM E-score": -0.0708}, {"sequence": "GGCCTTAC", "PBM E-score": -0.164}, {"sequence": "CGGGCGGA", "PBM E-score": -0.012}, {"sequence": "AAAGATAA", "PBM E-score": 0.179}, {"sequence": "AGGAAACT", "PBM E-score": -0.0643}, {"sequence": "ACCCTATA", "PBM E-score": -0.122}, {"sequence": "ATTCCATC", "PBM E-score": -0.0115}, {"sequence": "CTTATCAC", "PBM E-score": 0.0799}, {"sequence": "GGATGCGA", "PBM E-score": -0.201}, {"sequence": "CGAAGGGC", "PBM E-score": -0.198}, {"sequence": "CCCAATTA", "PBM E-score": 0.156}, {"sequence": "CCACATGA", "PBM E-score": 0.0512}, {"sequence": "GAAGTGAC", "PBM E-score": -0.151}, {"sequence": "CGGGACTA", "PBM E-score": -0.0932}, {"sequence": "AAAATATG", "PBM E-score": 0.241}, {"sequence": "GAAACGAA", "PBM E-score": 0.367}, {"sequence": "CTCACGTC", "PBM E-score": -0.034}, {"sequence": "ACAGGATC", "PBM E-score": -0.014}, {"sequence": "ACGTTTAG", "PBM E-score": -0.156}, {"sequence": "GCCAATTA", "PBM E-score": 0.05}, {"sequence": "CGTGTGTC", "PBM E-score": 0.019}, {"sequence": "ATGCTTCG", "PBM E-score": -0.132}, {"sequence": "ATGCAAAG", "PBM E-score": -0.115}, {"sequence": "GCGTTAGA", "PBM E-score": -0.078}, {"sequence": "AATTAACG", "PBM E-score": 0.0868}, {"sequence": "ATTACCTC", "PBM E-score": 0.0901}, {"sequence": "AACGCGAC", "PBM E-score": 0.0421}, {"sequence": "ATAGTCAG", "PBM E-score": -0.144}, {"sequence": "CAAACGCG", "PBM E-score": 0.292}, {"sequence": "GGGCTTCA", "PBM E-score": -0.192}, {"sequence": "AGCCGCAA", "PBM E-score": 0.00182}, {"sequence": "CCGCTTTC", "PBM E-score": 0.0921}, {"sequence": "GCACCAGA", "PBM E-score": -0.115}, {"sequence": "TCACGAGA", "PBM E-score": -0.0295}, {"sequence": "CACTCCTG", "PBM E-score": -0.125}, {"sequence": "ACTGAAGC", "PBM E-score": 0.0216}, {"sequence": "ACAATAAT", "PBM E-score": 0.0597}, {"sequence": "CGACCTCG", "PBM E-score": -0.111}, {"sequence": "GAAAGTCA", "PBM E-score": 0.0954}, {"sequence": "AAAGCCCA", "PBM E-score": 0.00361}, {"sequence": "AAGAATTA", "PBM E-score": 0.129}, {"sequence": "ATGATAGC", "PBM E-score": -0.0245}, {"sequence": "TATTTAGA", "PBM E-score": 0.121}, {"sequence": "GTCTAGAA", "PBM E-score": -0.0207}, {"sequence": "CTGAAGGC", "PBM E-score": -0.235}, {"sequence": "CATCCCCG", "PBM E-score": 0.247}, {"sequence": "CAAAATTC", "PBM E-score": 0.195}, {"sequence": "ACCCGGAA", "PBM E-score": 0.101}, {"sequence": "TGATGCAA", "PBM E-score": 0.137}, {"sequence": "GACAAACA", "PBM E-score": 0.0473}, {"sequence": "ATCTGGTC", "PBM E-score": 0.101}, {"sequence": "ACGTATAT", "PBM E-score": 0.134}, {"sequence": "CCCGAAAC", "PBM E-score": 0.303}, {"sequence": "TGCCGACA", "PBM E-score": -0.0784}, {"sequence": "CCATTGTA", "PBM E-score": 0.1}, {"sequence": "TACAAGCA", "PBM E-score": 0.00789}, {"sequence": "AATGCACT", "PBM E-score": 0.00621}, {"sequence": "ATGCGAAT", "PBM E-score": 0.124}, {"sequence": "AATAATGA", "PBM E-score": 0.0925}, {"sequence": "GAAAATGA", "PBM E-score": 0.204}, {"sequence": "CGCGAGGC", "PBM E-score": 0.155}, {"sequence": "AATAGATC", "PBM E-score": 0.0946}, {"sequence": "AACCTTAT", "PBM E-score": 0.138}, {"sequence": "ACTCCGGA", "PBM E-score": 0.0916}, {"sequence": "CCAGTCAA", "PBM E-score": -0.0304}, {"sequence": "AACGGATA", "PBM E-score": 0.189}, {"sequence": "ACGGGCAC", "PBM E-score": -0.161}, {"sequence": "TCTAAAGA", "PBM E-score": 0.0725}, {"sequence": "CCTTAGCC", "PBM E-score": 0.0679}, {"sequence": "AAGTCATC", "PBM E-score": -0.115}, {"sequence": "AGAAGGCC", "PBM E-score": -0.0299}, {"sequence": "AAGAACGG", "PBM E-score": -0.181}, {"sequence": "AAAAGTCC", "PBM E-score": 0.0278}, {"sequence": "AGTCCACT", "PBM E-score": -0.113}, {"sequence": "AAGAAGGT", "PBM E-score": -0.053}, {"sequence": "CTACCGCC", "PBM E-score": -0.167}, {"sequence": "CTGCCAAA", "PBM E-score": 0.082}, {"sequence": "CGATTCTA", "PBM E-score": -0.042}, {"sequence": "AGATAGGG", "PBM E-score": -0.218}, {"sequence": "CGATAAGC", "PBM E-score": -0.0182}, {"sequence": "TGGAGGAA", "PBM E-score": -0.15}, {"sequence": "GAATGCAA", "PBM E-score": 0.0344}, {"sequence": "ACCGGTAC", "PBM E-score": -0.201}, {"sequence": "AGACCAAG", "PBM E-score": -0.102}, {"sequence": "CGATCTAC", "PBM E-score": -0.0526}, {"sequence": "GTTGCTAA", "PBM E-score": 0.174}, {"sequence": "CTGTGAAG", "PBM E-score": 0.00467}, {"sequence": "CCCTGTGA", "PBM E-score": -0.124}, {"sequence": "CCTGTTAC", "PBM E-score": 0.151}, {"sequence": "CGAACAGC", "PBM E-score": -0.19}, {"sequence": "AATCAAAC", "PBM E-score": 0.216}, {"sequence": "CCCCCCGG", "PBM E-score": -0.276}, {"sequence": "GGTTCATA", "PBM E-score": -0.0487}, {"sequence": "ATTTCCCA", "PBM E-score": 0.079}, {"sequence": "ATAACACG", "PBM E-score": 0.0471}, {"sequence": "AGGCATCC", "PBM E-score": -0.26}, {"sequence": "GGAAGTTA", "PBM E-score": 0.0953}, {"sequence": "GGCGCGCC", "PBM E-score": 0.182}, {"sequence": "ACTACAAT", "PBM E-score": 0.25}, {"sequence": "AGAGATCC", "PBM E-score": 0.00365}, {"sequence": "CTAGCCGC", "PBM E-score": -0.156}, {"sequence": "CCACTTAC", "PBM E-score": 0.133}, {"sequence": "AGATCACA", "PBM E-score": -0.134}, {"sequence": "AAGGCTAT", "PBM E-score": -0.0241}, {"sequence": "AGGCAGAA", "PBM E-score": -0.0201}, {"sequence": "CATGTGGC", "PBM E-score": -0.112}, {"sequence": "CCCGAAAG", "PBM E-score": 0.00951}, {"sequence": "ATTGCAAG", "PBM E-score": 0.0803}, {"sequence": "CGGAATTA", "PBM E-score": 0.0923}, {"sequence": "CGTCCATA", "PBM E-score": -0.05}, {"sequence": "GCGGTATA", "PBM E-score": 0.0655}, {"sequence": "GGCCACCA", "PBM E-score": 0.0635}, {"sequence": "ACACGAGT", "PBM E-score": 0.0473}, {"sequence": "AGAGCAAG", "PBM E-score": -0.103}, {"sequence": "ACGATCCC", "PBM E-score": 0.159}, {"sequence": "CCAAGCGG", "PBM E-score": -0.244}, {"sequence": "ACAATCGT", "PBM E-score": -0.0611}, {"sequence": "GGTACTAA", "PBM E-score": 0.123}, {"sequence": "GTGGCTAA", "PBM E-score": 0.0525}, {"sequence": "AAAGGGGG", "PBM E-score": -0.237}, {"sequence": "TTGACAAA", "PBM E-score": -0.0401}, {"sequence": "ACCTGATA", "PBM E-score": 0.051}, {"sequence": "CCCGTTCA", "PBM E-score": 0.0328}, {"sequence": "CCAACAGG", "PBM E-score": 0.106}, {"sequence": "CTATATAC", "PBM E-score": 0.162}, {"sequence": "CCATTATC", "PBM E-score": -0.019}]}]}
